Laboratory results published in the supplement of paper PMC12423691.
The list shows a part of the results. Binding of human transcription factors and regulators to the viral nucleoprotein by AlphaScreen, crude cell-free proteins, amounts not normalised, one pass. Fold of the Venus control; higher = more signal. No active / inactive call. Single-pass screen; sequences are the whole Swiss-Prot entries looked up by name.

tested on: nucleoprotein N of Crimean-Congo hemorrhagic fever virus; assay: AlphaScreen luminescence signal relative to Venus negative control (fold); higher = stronger binding to CCHFV N
Description: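 AlphaScreen binding of cell-free made, FLAG-GST-tagged human transcription factors and regulators (crude translation products) to biotinylated N protein; signal as fold of the FLAG-GST-Venus control. One pass.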

Substance	AlphaScreen luminescence signal
ZKSCAN7, Q9P0L1	1.53
ZIM3, Q96PE6	2.14
HOXB8, P17481	5.12
ZNF571, Q7Z3V5	2.88
ZNF397, Q8NF99	1.35
ZNF623, O75123	2.7
MEOX1, P50221	2.84
ST18, O60284	2.28
SOX5, P35711	2.79
ZKSCAN1, P17029	2.79
ZNF418, Q8TF45	3.12
ZNF263, O14978	2.42
MZF1, P28698	1.44
OTX2, P32243	2.51
ARNT, P27540	2.56
HOXC6, P09630	7.86
ZNF649, Q9BS31	2.56
ZNF135, P52742	2.09
PRDM1, O75626	2.84
MYT1L, Q9UL68	2.09
ZSCAN22, P10073	1.3
NHLH1, Q02575	2.37
ZNF154, Q13106	2.42
ZNF500, O60304	2

Substance	AlphaScreen luminescence signal
PITX3, O75364	2.37
ZNF480, Q8WV37	2.6
ZNF292, O60281	1.53
ZNF92, Q03936	6.88
ZNF549, Q6P9A3	3.58
ZNF227, Q86WZ6	1.77
ZFP69B, Q9UJL9	1.81
ZNF224, Q9NZL3	2.6
ZFHX3, Q15911	2.14
ZNF792, Q3KQV3	1.16
HIF3A, Q9Y2N7	3.72
PLA2G1B, P04054	2.56
CIR1, Q86X95	4.51
NEUROD6, Q96NK8	2.51
ZIM2, Q9NZV7	1.91
ZNF45, Q02386	3.86
ZSCAN2, Q7Z7L9	0.884
ZNF431, Q8TF32	2.51
ZNF37A, P17032	3.26
WT1, P19544	1.63
NKX3-2, P78367	1.95
ALX4, Q9H161	4.33
ZNF548, Q8NEK5	2.74
ZNF629, Q9UEG4	1.72

Substance	AlphaScreen luminescence signal
SOX17, Q9H6I2	2.93
ZNF133, P52736	2.37
DMRT1, Q9Y5R6	3.21
ZNF140, P52738	3.81
ZIK1, Q3SY52	2.6
HOXA4, Q00056	1.21
DMRTC2, Q8IXT2	1.53
ZNF24, P17028	1.67
HOXD13, P35453	2.37
PHOX2A, O14813	2.7
KLF12, Q9Y4X4	4.79
GATA3, P23771	2.84
MSRB2, Q9Y3D2	4.05
SHOX, O15266	1.91
PRKCB, P05771	2.74
GATA4, P43694	2
ZNF23, P17027	1.35
SOX11, P35716	8.6
HOXB7, P09629	4.88
TAF6, P49848	2.28
HOXD4, P09016	3.72
TFAP2D, Q7Z6R9	3.49
PDX1, P52945	4.37
ZNF415, Q09FC8	1.44

Substance	AlphaScreen luminescence signal
ZNF3, P17036	2.05
ZNF641, Q96N77	3.63
ZNF132, P52740	2.47
NRL, P54845	3.72
ZNF773, Q6PK81	2
ZNF197, O14709	3.16
ZNF726, A6NNF4	2.23
DLX3, O60479	2.93
MECOM, Q03112	1.49
ZFP3, Q96NJ6	1.63
HOXD10, P28358	2.98
BACH2, Q9BYV9	1.16
BMP7, P18075	2.28
EDA, Q92838	3.81
ZNF311, Q5JNZ3	3.26
DMBX1, Q8NFW5	3.02
ZNF540, Q8NDQ6	5.35
ETV5, P41161	3.3
DLX6, P56179	7.58
ZNF286A, Q9HBT8	3.49
ZNF880, Q6PDB4	1.58
ZSCAN30, Q86W11	1.72
RBPJ, Q06330	3.49
DLX5, P56178	2.84

Substance	AlphaScreen luminescence signal
NHLH2, Q02577	2.19
ZNF420, Q8TAQ5	2.33
PAX8, Q06710	2.93
ZNF8, P17098	2.19
MAFB, Q9Y5Q3	5.12
TAF10, Q12962	1.12
ZNF383, Q8NA42	2.05
ZNF490, Q9ULM2	2.42
GATA1, P15976	2.56
OTX1, P32242	1.4
ZNF189, O75820	1.26
ZNF454, Q8N9F8	1.95
ZNF808, Q8N4W9	1.26
EGR2, P11161	3.3
ZNF256, Q9Y2P7	3.63
ZNF267, Q14586	1.44
ZNF2, Q9BSG1	1.77
ZNF350, Q9GZX5	2.33
KLF2, Q9Y5W3	5.35
NCOR1, O75376	1.81
ELF4, Q99607	4.14
LHX6, Q9UPM6	1.35
KLF15, Q9UIH9	6.65
KLF1, Q13351	4.05

Substance	AlphaScreen luminescence signal
ZNF317, Q96PQ6	1.95
KLF9, Q13886	2.47
SOX21, Q9Y651	1.77
YBX3, P16989	3.02
ZNF211, Q13398	2.09
HOXD9, P28356	4.37
ZFP37, Q9Y6Q3	3.91
MAFK, O60675	2.19
MSX1, P28360	2.05
HOXB4, P17483	6.79
KLF7, O75840	2.98
FIGLA, Q6QHK4	2.47
ZNF546, Q86UE3	3.63
ZNF157, P51786	2.56
ZKSCAN8, Q15776	1.49
ZNF268, Q14587	3.63
ZNF274, Q96GC6	3.53
HNRNPAB, Q99729	3.81
HOXB3, P14651	3.67
HOXC5, Q00444	4.23
TAL1, P17542	3.26
HOXA6, P31267	2.84
ZNF304, Q9HCX3	2.47
TAL2, Q16559	6.19

Substance	AlphaScreen luminescence signal
TAF5L, O75529	2.37
SOX15, O60248	3.95
DMRTB1, Q96MA1	3.07
ZNF26, P17031	3.26
ZNF300, Q96RE9	2.33
BHLHA15, Q7RTS1	2.19
ZNF43, P17038	2.23
SPEN, Q96T58	1.4
EP300, Q09472	1.91
ZNF621, Q6ZSS3	1.53
TLX1, P31314	4.47
ZNF320, A2RRD8	3.07
ZNF175, Q9Y473	2
STAT2, P52630	2.23
ALX1, Q15699	1.81
HNRNPK, P61978	5.16
SOX6, P35712	3.91
HIVEP3, Q5T1R4	1.58
PAX5, Q02548	2.84
LYL1, P12980	2.09
ZNF606, Q8WXB4	2.51
KLF4, O43474	10.8
